In all, about 81,000 sequences were measured (“one-hybrid fitness for binding parS DNA”: median about -0.17, highest 2% from about 0.51 on). Some of the results follow.
B1: Caulobacter ParB omega fusion; a variant is named by its letters at X, in order, B8GW30 (parent)
chain: MESVVVGEPGMSEGRRGLGRGLSALLGEVDAAPAQAPGEQLGGSREAPIEILQRNPDQPRRTFREEDLEDLSNSIREKGVLQPILVRPSPDTAGEYQIVAGERAWRAAQRAGLKTVPIMVRELDDLAVLEIGIIENVQRADLNVLEEALSYKVLMEKFERTQENIAQTIGKSXSHVANXMRLLXLPDEVQSYLVSGELTAXHARAIAAAADPVALAKQIIEGGLSVRETEALARKAPNLSAGKSKGGRPPRVKDTDTQALESDLSSVLGLDVSIDHRGSTGTLTITYATLEQLDDLCNRLTRGI

Variants of: B1
Test: one-hybrid fitness for binding parS DNA (scaled: cognate 1, non-cognate 0); higher = stronger binding
Conditions: with parS DNA site
How it was run: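 Selection: bacterial one-hybrid in E. coli USO, HIS3 reporter with the site 19 bp from the promoter, 48 hours at 37°C on M9-minus-histidine plus 0.1 mM IPTG and 5 mM 3-AT. Libraries were Caulobacter ParB with four randomised specificity codons, sequenced on Illumina before and after selection. Fitness is the rescaled log change in variant-to-wild-type read ratio, anchored to the cognate and non-cognate sites.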

| Variant | one-hybrid fitness for binding parS DNA |
| --- | --- |
| CVKD | ≤ 0.2 |
| KFGV | ≤ 0.2 |
| IYDF | ≤ 0.2 |
| QNQE | ≤ 0.2 |
| EPLH | ≤ 0.2 |
| QSMP | ≤ 0.2 |
| PSVL | ≤ 0.2 |
| SVAA | ≤ 0.2 |
| YPSN | ≤ 0.2 |
| HYRV | ≤ 0.2 |
| TEIF | ≤ 0.2 |
| SCPA | ≤ 0.2 |
| INDR | ≤ 0.2 |
| HVNT | ≤ 0.2 |
| KPLG | ≤ 0.2 |
| VRTH | ≤ 0.2 |
| QVSI | ≤ 0.2 |
| SKTV | ≤ 0.2 |
| RINK | ≤ 0.2 |
| PSQV | ≤ 0.2 |
| IDSK | ≤ 0.2 |
| AMHF | ≤ 0.2 |
| PTIS | ≤ 0.2 |
| AGFF | ≤ 0.2 |
| FTWC | ≤ 0.2 |
| REPF | ≤ 0.2 |

| Variant | one-hybrid fitness for binding parS DNA |
| --- | --- |
| QKED | ≤ 0.2 |
| SCVF | ≤ 0.2 |
| TVND | ≤ 0.2 |
| LLKW | ≤ 0.2 |
| PVQG | ≤ 0.2 |
| VHCP | ≤ 0.2 |
| PTQK | ≤ 0.2 |
| EHRT | ≤ 0.2 |
| TCRI | ≤ 0.2 |
| ETHM | ≤ 0.2 |
| PFPT | ≤ 0.2 |
| KEVP | ≤ 0.2 |
| TTMV | ≤ 0.2 |
| RMQP | ≤ 0.2 |
| WALA | ≤ 0.2 |
| PLKS | ≤ 0.2 |
| IAYS | ≤ 0.2 |
| DSSL | ≤ 0.2 |
| VCIS | ≤ 0.2 |
| LMCA | ≤ 0.2 |
| SKAI | ≤ 0.2 |
| AVNV | ≤ 0.2 |
| QKKT | ≤ 0.2 |
| LTDV | ≤ 0.2 |
| KQKS | ≤ 0.2 |
| LKEG | ≤ 0.2 |

| Variant | one-hybrid fitness for binding parS DNA |
| --- | --- |
| SQHT | ≤ 0.2 |
| AVQV | ≤ 0.2 |
| ERIC | ≤ 0.2 |
| TEHS | ≤ 0.2 |
| TGIV | ≤ 0.2 |
| NTCV | ≤ 0.2 |
| PESR | ≤ 0.2 |
| NASG | ≤ 0.2 |
| AEKL | ≤ 0.2 |
| HNHR | ≤ 0.2 |
| RMFT | 0.882 |
| SMPG | ≤ 0.2 |
| MQST | ≤ 0.2 |
| ANTY | ≤ 0.2 |
| TVAQ | ≤ 0.2 |
| HEVT | ≤ 0.2 |
| CYGA | ≤ 0.2 |
| DAGS | ≤ 0.2 |
| AGEI | ≤ 0.2 |
| RHKG | 0.879 |
| HCLT | ≤ 0.2 |
| GGGM | ≤ 0.2 |
| VRNK | ≤ 0.2 |
| AHPF | ≤ 0.2 |
| DTSP | ≤ 0.2 |
| TVFV | ≤ 0.2 |

| Variant | one-hybrid fitness for binding parS DNA |
| --- | --- |
| KKHS | ≤ 0.2 |
| TARK | ≤ 0.2 |
| DTGM | ≤ 0.2 |
| TAMG | ≤ 0.2 |
| PVPE | ≤ 0.2 |
| QWFR | ≤ 0.2 |
| HKLF | ≤ 0.2 |
| EMTS | ≤ 0.2 |
| LVCL | ≤ 0.2 |
| VPGI | ≤ 0.2 |
| VFAC | ≤ 0.2 |
| VLNR | ≤ 0.2 |
| RPQC | ≤ 0.2 |
| VRYG | ≤ 0.2 |
| KRAY | ≤ 0.2 |
| SKAR | ≤ 0.2 |
| EPTC | ≤ 0.2 |
| VLSW | ≤ 0.2 |
| VEWF | ≤ 0.2 |
| LHHT | ≤ 0.2 |
| PYDY | ≤ 0.2 |
| DNSY | ≤ 0.2 |
| RSWM | 0.285 |
| WCLS | ≤ 0.2 |
| PSTC | ≤ 0.2 |
| VTNR | ≤ 0.2 |

| Variant | one-hybrid fitness for binding parS DNA |
| --- | --- |
| QVME | ≤ 0.2 |
| LSPY | ≤ 0.2 |
| FPVR | ≤ 0.2 |
| TSMS | ≤ 0.2 |
| KGGW | ≤ 0.2 |
| VYRM | ≤ 0.2 |
| SDDS | ≤ 0.2 |
| PMQG | ≤ 0.2 |
| RQDT | 0.768 |
| AWNN | ≤ 0.2 |
| FILL | ≤ 0.2 |
| INIG | ≤ 0.2 |
| RSHD | ≤ 0.2 |
| WRHM | ≤ 0.2 |
| RKQP | ≤ 0.2 |
| WPMS | ≤ 0.2 |
| KSMG | ≤ 0.2 |
| QGGG | ≤ 0.2 |
| IGHI | ≤ 0.2 |
| RMQV | ≤ 0.2 |
| SNLM | ≤ 0.2 |
| GMEG | ≤ 0.2 |
| RWLG | 0.685 |
| QTWV | ≤ 0.2 |
| PLGR | ≤ 0.2 |
| EKTR | ≤ 0.2 |

| Variant | one-hybrid fitness for binding parS DNA |
| --- | --- |
| YYLT | ≤ 0.2 |
| CIAR | ≤ 0.2 |
| SLNQ | ≤ 0.2 |
| GKTR | ≤ 0.2 |
| PGMV | ≤ 0.2 |
| ASQW | ≤ 0.2 |
| DERY | ≤ 0.2 |
| SFEG | ≤ 0.2 |
| YGYV | ≤ 0.2 |
| YNNI | ≤ 0.2 |
| GYTS | ≤ 0.2 |
| DHPG | ≤ 0.2 |
| IQRT | ≤ 0.2 |
| YDTW | ≤ 0.2 |
| VNYS | ≤ 0.2 |
| PQFI | ≤ 0.2 |
| YQGR | ≤ 0.2 |
| KCVG | ≤ 0.2 |
| KWLG | ≤ 0.2 |
| NGSS | ≤ 0.2 |
| IKVG | ≤ 0.2 |
| DQAE | ≤ 0.2 |
| PVPA | ≤ 0.2 |

— a collection of fitness landscapes (doi:10.1016/j.celrep.2020.107928)
